Reference: PubChem BioAssay AID651820 (National Center for Advancing Translational Sciences (NCATS), 2012)
Among all 340,000 compounds or so, about 12,000 (3.5%) were called active. Inconclusive means that the source gave no clear call. Such entries were picked first, then a sample of the others. Calls follow the shape of the dose curve; as a rule, active = well fitted inhibition curve with a large enough effect; inconclusive = small, poorly fitted or top-dose-only effect, or another doubt; inactive = no such curve, though single readings can be large or run the other way. No potency is given beside an inconclusive call; the fits are too rough.

Test: qHTS Assay for Inhibitors of Hepatitis C Virus (HCV)
Conditions: Huh7.5.1 HCVcc-Cre (HCVcc is cell-culture hepatitis C virus) infection, luciferase reporter, 44 h; series mostly up to 41.8 µM
How it was run: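 Seed cells (1,000/well) for 4 h; treat with compound and infect with HCVcc-Cre, moi about 0.5. Incubate 44 h, then detect luciferase activity.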
Potency is read from the fitted curve at half-maximal effect; tags tell the direction and shape of the fitted curve.

SMILES	Potency
CC(Sc1ccccc1F)C(=O)Nc1ccc2c(c1)OCCO2 (configuration not stated)	inactive
C[C@@]12C(=O)Nc3ccc(Br)cc3C(=O)N1[C@H]1c3ccccc3OC[C@@H]1[C@@H]2c1ccccc1	inconclusive [inhibitor, single point]
CCOC(=O)Cn1c(S(=O)(=O)Cc2cccc(F)c2)nc(-c2ccccc2)c1-c1ccccc1	inconclusive [inhibitor, single point]
Cc1ccc2nc(-c3ccc(SCC(=O)Nc4ccc5c(c4)OCCO5)nc3)[nH]c2c1	inconclusive [inhibitor, single point]
Cc1nc([N+](=O)[O-])c(Br)n1CC(=O)c1ccccc1	inconclusive [inhibitor, single point]
O=[N+]([O-])c1ccc(NN=C(c2ccccc2)c2ccccc2)nc1	inconclusive [inhibitor, single point]
Cc1nnsc1C(=O)Nc1ccc(S(=O)(=O)N2CCCC(C)C2)cc1 (configuration not stated)	inconclusive [inhibitor, single point]
COc1ccc(C(=O)N2CCN(c3ccc([N+](=O)[O-])c(NCCc4ccc(OC)c(OC)c4)c3)CC2)cc1	active: 1 µM
CCOC(=O)c1c(C)[nH]c(C(=O)COC(=O)/C=C/c2ccc(O)c(OC)c2)c1C	inconclusive [inhibitor, partial curve, poor fit]
CCN1C(=O)[C@H]2[C@@H](c3ccc(C)cc3)N3C(=O)N(c4ccccc4)C(=O)[C@@]3(Cc3ccccc3)[C@H]2C1=O	inactive
O=C(NCCCN1CCOCC1)c1cc(-c2ccc(Br)cc2)on1	inconclusive [inhibitor, partial curve]
O=C(CCNC(=O)c1ccc([N+](=O)[O-])cc1)NNC(=O)c1ccccc1F	inactive
COc1c(F)c(F)c(C(=O)Nc2ccccc2N2CCN(C(=O)C(C)C)CC2)c(F)c1F	inconclusive [inhibitor, single point]
CCc1cc2c(Nc3ccccc3O)nc(C)nc2s1	inconclusive [inhibitor, single point]
COc1ccc(OC)c(C2=NOC(C(=O)N3CCCc4ccccc43)C2)c1 (configuration not stated)	inconclusive [inhibitor, partial curve]
OC(COc1ccc(CN2CCSCC2)cc1)CN1CCCCC1 (configuration not stated)	inconclusive [inhibitor, partial curve]
O=C(NC1CCCCC1)C(c1ccc2ncccc2c1)N(Cc1ccc(F)cc1)C(=O)c1ccc2c(c1)OCCO2 (configuration not stated)	inconclusive [inhibitor, single point]
